# Measured values: the BET-seq Pho4 binding data (Le et al. 2018)
# This is one part of the list. Values were computed here from the reads of four pooled replicates and scatter widely.
# Target: T1, Pho4 (S. cerevisiae) (UniProt P07270)
# T1 sequence: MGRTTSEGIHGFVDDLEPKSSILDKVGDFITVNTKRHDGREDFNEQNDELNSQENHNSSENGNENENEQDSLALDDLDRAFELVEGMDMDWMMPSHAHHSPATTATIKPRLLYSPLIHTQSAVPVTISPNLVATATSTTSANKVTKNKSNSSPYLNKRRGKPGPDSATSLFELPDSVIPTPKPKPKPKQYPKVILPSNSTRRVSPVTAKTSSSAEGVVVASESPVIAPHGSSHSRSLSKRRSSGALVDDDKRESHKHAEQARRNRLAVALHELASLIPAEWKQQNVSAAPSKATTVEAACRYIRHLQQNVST
# Test: relative binding free energy (BET-seq); higher = weaker binding
# Conditions: reference: library average
row,Sequence,relative binding free energy [kcal/mol]
1,TGTAACACGTGTCAGT,-0.06
2,TAAGTCACGTGGGAGC,0.03
3,ATTATCACGTGTTATA,0.26
4,TTTGGCACGTGTGTAT,-0.04
5,TTACGCACGTGTTGAT,0
6,ATAACCACGTGTGTGG,-0.13
7,TGTGACACGTGGATCG,-0.06
8,GGGCGCACGTGGGCAG,-0.18
9,TGGTGCACGTGAATCT,0.3
10,TAGAACACGTGGGTGA,-0.13
11,TGGGCCACGTGGTTGT,-0.13
12,CTTAACACGTGTGGGG,0.06
13,GAGTGCACGTGTGGCG,0.07
14,TTTCACACGTGTTTTT,0.27
15,TATCGCACGTGCGTGT,-0.07
16,TAGGTCACGTGCGTTT,0.07
17,GGGTGCACGTGTGATA,0.12
18,CATTGCACGTGGTAAG,0.11
19,TCGATCACGTGGTCGG,0.03
20,AGGTGCACGTGCAGTG,-0.08
21,ACGTGCACGTGGAGTA,-0.04
22,GTCGCCACGTGTGGGG,-0.02
23,ATGGACACGTGTATAA,0.18
24,TTGTTCACGTGGTGAT,0.37
25,AGTGCCACGTGGGCGT,-0.33
26,AGGATCACGTGGGATT,0.18

row,Sequence,relative binding free energy [kcal/mol]
1,GTGGTCACGTGCACTG,0.06
2,CTGGTCACGTGGGCTA,0.05
3,TAAAGCACGTGTTTTG,-0.16
4,ATCGGCACGTGGTAGA,-0.19
5,GGTTTCACGTGTCGCT,0.16
6,ATAGGCACGTGAGGAA,0.05
7,ATTATCACGTGGGCAG,0
8,GTACACACGTGGTTTG,-0.17
9,GACGGCACGTGGGGGA,-0.21
10,GATGTCACGTGCAGGA,0.24
11,TTCGTCACGTGAATGG,0.37
12,GAAGTCACGTGGGTGC,0.07
13,TAATTCACGTGTTAAT,0.2
14,ATTTACACGTGGATGG,-0.01
15,TGATTCACGTGTGAGC,0.2
16,TTGAACACGTGGACTT,0.28
17,GGGGACACGTGAATGT,0.14
18,GTTCTCACGTGGGATT,0.18
19,TTGCGCACGTGGGGAG,-0.19
20,TTTGACACGTGTGTGT,0.09
21,AGCGGCACGTGGTAGG,-0.07
22,TTTGGCACGTGTCCAT,-0.1
23,GATCACACGTGGAGGG,0.13
24,GTTGTCACGTGTAATA,0.13
25,TTGGGCACGTGGTAAG,-0.1
26,GTGCGCACGTGTGAGT,-0.04

row,Sequence,relative binding free energy [kcal/mol]
1,CTGGTCACGTGGGAGA,-0.08
2,GGTTACACGTGAGGAG,0.19
3,TGTGGCACGTGAGGTC,0.2
4,TGAAGCACGTGGGTGA,-0.23
5,CGTTTCACGTGTTACG,0.17
6,GGTCTCACGTGGGCAT,0.21
7,GGGCGCACGTGTTAGA,0.02
8,TGGGTCACGTGAATCA,0.45
9,TGTGGCACGTGAGAGC,0.2
10,TTGTTCACGTGGAACG,0.28
11,GCATGCACGTGTTTTG,0.02
12,GGGGGCACGTGCTCTG,-0.18
13,AGCAGCACGTGTAGTT,0.03
14,TCTGACACGTGGGGGC,-0.1
15,AGAGGCACGTGAATTG,0.12
16,TGCAGCACGTGTGTGA,-0.03
17,TGTGTCACGTGTCCGG,0.1
18,TGGCGCACGTGCGAGG,-0.08
19,AATTGCACGTGCTTTG,-0.07
20,GGTGGCACGTGACGTT,-0.01
21,CGGTACACGTGATGTT,0.19
22,GTGGGCACGTGAGCTA,0.07
23,TTGTTCACGTGGCGGA,0.15
24,TGGTACACGTGGGGCA,0.02
25,GGGCGCACGTGTCGGG,-0.03
26,TTCCGCACGTGGTGTA,-0.21

row,Sequence,relative binding free energy [kcal/mol]
1,TGGTGCACGTGTTTCC,0.14
2,GGAGTCACGTGATGTA,0.31
3,TGTAGCACGTGATCTT,0.01
4,AATGGCACGTGGTTGT,-0.19
5,CTGAGCACGTGGTAGT,-0.25
6,TGTAGCACGTGTGTTC,-0.04
7,AGAGGCACGTGAGGTT,0.12
8,CGGAGCACGTGCTGGT,-0.05
9,TTAGGCACGTGCGGGG,-0.19
10,AGGAACACGTGTGTGT,0.15
11,TTCTACACGTGAGGCG,0.36
12,GGATTCACGTGGTTTT,0.22
13,GTAGACACGTGGTGTG,-0.05
14,AAAAGCACGTGGGGTT,-0.15
15,TACGGCACGTGATGGG,0.16
16,GACTTCACGTGGTGGG,0.36
17,GTGTACACGTGCGTGT,-0.02
18,GGGATCACGTGTGAGG,0.25
19,GCTGGCACGTGTCAGT,0.12
20,TTTCTCACGTGGGAGT,0.19
21,GAGGGCACGTGCGGTG,-0.12
22,ACATACACGTGTGTTT,0.07
23,GTGATCACGTGTGGGA,0.06
24,GCATTCACGTGGGGCG,0.14
25,TACTTCACGTGTGTGG,0.36
26,ATGATCACGTGTAATT,0.26

row,Sequence,relative binding free energy [kcal/mol]
1,TTGTACACGTGAGGTG,0.34
2,TATGGCACGTGTGGCA,-0.08
3,GGTTACACGTGGGCGG,0.02
4,TCAGGCACGTGGGGCG,-0.38
5,TTTTTCACGTGGGCAT,0.21
6,AGCCGCACGTGATGGG,0.06
7,GTACACACGTGGGGGG,-0.14
8,GGATACACGTGATGAG,0.32
9,AATTTCACGTGAAGTG,0.34
10,CGGGACACGTGTAGGT,0.06
11,TGGTTCACGTGGTCCG,0.22
12,AGTAGCACGTGGAACT,0.24
13,TTGCGCACGTGGAGCG,-0.12
14,CGCATCACGTGGGGTT,0.06
15,TTAGGCACGTGGTATA,-0.07
16,CGAGACACGTGGGTTA,-0.03
17,TGCGGCACGTGAATTT,0.38
18,AAGGGCACGTGGAACG,-0.11
19,TTTATCACGTGCTTAA,0.14
20,GGGATCACGTGTTAGT,0.18
21,GATGGCACGTGTATCG,-0.01
22,GTTTTCACGTGGAGCA,0.25
23,TGAATCACGTGGTCGA,0.09
24,AGTGGCACGTGCGTTG,-0.24
25,TGTAGCACGTGGAGAA,0.06
26,CAGGACACGTGATGGG,0.12

row,Sequence,relative binding free energy [kcal/mol]
1,ATTTTCACGTGCTCTT,0.35
2,GCGGACACGTGGTTGG,0.03
3,TATAACACGTGGGTAT,-0.26
4,ATTGCCACGTGTTATT,-0.15
5,TAGAGCACGTGGCTTG,-0.2
6,TCAGTCACGTGATGGT,0.27
7,TGTAACACGTGATGCT,0.14
8,AGGGACACGTGGGGCA,-0.17
9,CGCGACACGTGGGGTG,-0.28
10,TAGTGCACGTGGGGCT,-0.19
11,AGGTGCACGTGGAGGA,0.02
12,GTAACCACGTGGGTGT,-0.01
13,GATGGCACGTGGTTTA,-0.03
14,TTGATCACGTGTTAGA,0.22
15,TGCGCCACGTGTGTTT,0.03
16,TGTTTCACGTGATGGA,0.24
17,TGTTTCACGTGTTAAG,0.25
18,TTATGCACGTGGCGGT,-0.1
19,CTTATCACGTGGGTTT,-0.07
20,TGTGTCACGTGGCAGG,0.04
21,CTTGTCACGTGGGAGT,-0.16
22,ATACGCACGTGTAGTG,-0.08
23,GTTTGCACGTGATTTG,0.16
24,TCGTGCACGTGGCCGT,-0.13
25,CGCGTCACGTGTGCGG,0.06
26,AAACTCACGTGGGTGT,0.09

row,Sequence,relative binding free energy [kcal/mol]
1,TAGGGCACGTGAGAGG,-0.01
2,TTCGTCACGTGATGAG,0.18
3,GAACGCACGTGAGGTG,0.24
4,AGTTACACGTGGGCGA,-0.11
5,GGGATCACGTGAGCGG,0.45
6,ATTTGCACGTGAAATA,0.18
7,GTGGACACGTGATAGG,0.19
8,CCGATCACGTGTTTGG,0.17
9,CGGAACACGTGATGTT,0.31
10,TGATGCACGTGTGGCA,-0.16
11,ATTGTCACGTGGGGCA,-0.05
12,GGGGACACGTGGATGG,0.08
13,GGTTGCACGTGCCGGA,0.03
14,CGCGTCACGTGTTGGG,0.01
15,TATCACACGTGGGGTC,0.02
16,CATTTCACGTGTGGGG,0.25
17,GAGGTCACGTGATGTG,0.14
18,AAAGACACGTGGGGGG,-0.08
19,TTGGTCACGTGGCCGC,0.07
20,TTTCACACGTGGGTGG,-0.02
21,TGGGGCACGTGATGCA,-0.21
22,TTACGCACGTGGTATA,-0.22
23,GTTTTCACGTGTTAGA,0.26
24,TGGCTCACGTGAGCGG,0.14
25,GATGTCACGTGTTTAA,0.17
26,TAGAGCACGTGTATTA,0.06

row,Sequence,relative binding free energy [kcal/mol]
1,ATGAGCACGTGGGTAA,-0.23
2,ATGGTCACGTGGATAG,0.18
3,TGGTTCACGTGCTGAA,0.2
4,GTGCGCACGTGTTGAG,0.03
5,CTTAGCACGTGAAGGG,0.05
6,TAGTCCACGTGGGTTT,-0.06
7,TAGGGCACGTGTTTTG,-0.12
8,GGTCGCACGTGTGTTA,0.1
9,TGGATCACGTGCGGAG,0.14
10,TCTTTCACGTGGTGGT,0.25
11,ATTGCCACGTGCTTGG,-0.01
12,CATAGCACGTGTGAAG,0.07
13,TTCTACACGTGGGGTT,-0.09
14,GCCGTCACGTGAGGTG,0.29
15,GTGGGCACGTGGATAT,-0.02
16,TAGTGCACGTGGCAAT,-0.03
17,TTTAACACGTGAGTGG,0.28
18,GCAGGCACGTGATAGT,0.03
19,TAGGTCACGTGTGCCT,0.16
20,CGGTTCACGTGTCGGG,0.24
21,TTTTGCACGTGGAGCT,0.11
22,GGTAGCACGTGGACGT,0.02
23,TAGTGCACGTGTAGAT,0.13
24,CTGTACACGTGGTATT,-0.07
25,GTGTTCACGTGTTAAT,0.33
26,ACTTGCACGTGGGAGT,-0.13

row,Sequence,relative binding free energy [kcal/mol]
1,TGATACACGTGGGTTA,-0.16
2,AGGTGCACGTGGGTTC,-0.16
3,AGAGGCACGTGGGTAA,-0.29
4,GTACACACGTGGTAGG,0.05
5,AGGCACACGTGTGGGG,0.01
6,CTGTGCACGTGAATTG,0.33
7,GATATCACGTGTAAGT,0.27
8,AGGCGCACGTGTTAGT,0
9,TATCGCACGTGAGTTT,0.04
10,CTCTTCACGTGGTTGG,0.11
11,AAGATCACGTGAGGTA,0.31
12,AAGAACACGTGGGTTA,-0.06
13,TTAGCCACGTGCGGGT,-0.18
14,GTTTACACGTGATAGG,0.42
15,TTATGCACGTGACGGG,0.02
16,GTCGTCACGTGAGAGT,0.3
17,CAGAACACGTGAGGGT,0.2
18,CATTACACGTGGTTTT,-0.01
19,AGGGCCACGTGATGTT,-0.02
20,CTTGTCACGTGTAAAT,0.13
21,GGTTGCACGTGTATCG,0.12
22,TGGCGCACGTGGTCAG,-0.14
